By IC50 is commonly meant the concentration needed to halve the response being measured.

The record followed here is patent US9725426B2, “Cystathionine-γ-lyase (CSE) inhibitors” (SOVA PHARMACEUTICALS, INC., priority 2012, dated 2017).

For the test, the target named is human, mouse or rat recombinant CSE (Homo sapiens, UniProt P32929).

Molecules are shown by their SMILES. Structures can show the parent of a compound that is named as a salt. A value given as a limit tells only on which side of the number the result lay.

Sequence of UniProt P32929 (P32929 whole entry, looked up): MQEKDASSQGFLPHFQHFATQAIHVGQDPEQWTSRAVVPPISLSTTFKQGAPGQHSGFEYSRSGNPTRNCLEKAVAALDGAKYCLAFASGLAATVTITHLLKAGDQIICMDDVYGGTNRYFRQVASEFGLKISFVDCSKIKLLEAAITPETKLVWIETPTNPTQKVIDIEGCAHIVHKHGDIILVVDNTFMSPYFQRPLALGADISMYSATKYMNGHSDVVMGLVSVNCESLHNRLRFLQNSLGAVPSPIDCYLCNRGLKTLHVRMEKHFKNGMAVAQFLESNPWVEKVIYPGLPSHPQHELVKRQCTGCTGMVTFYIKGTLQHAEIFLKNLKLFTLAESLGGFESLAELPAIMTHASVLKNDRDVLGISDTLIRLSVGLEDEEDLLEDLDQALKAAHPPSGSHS

For `CCN(N)C(=O)NS(=O)(=O)c1ccccc1` [Example 35, 1-ethyl-N-(phenylsulfonyl)hydrazinecarboxamide], the IC50 was above 100 µM.
As for `CN(C)CCN(N)c1nnn[nH]1` [Example 2, 2-(1-(1H-tetrazol-5-yl)hydrazinyl)-N,N-dimethylethanamine], the figure is above 100 µM; as for `CCN(N)C(=O)Nc1nnn[nH]1` [Example 34, 1-ethyl-N-(1H-tetrazol-5-yl)hydrazinecarboxamide], above 100 µM; as for `NN(Cc1ccccc1)c1nnn[nH]1` [Example 8], above 100 µM.
As for `Clc1ccc(/C=N/Nc2nnn[nH]2)c(Cl)c1` [Example 19], the figure is above 100 µM.
The result for `CC(C)CN(N)c1nnn[nH]1` [Example 10] reads above 100 µM.
For `CCN(N)c1ncn[nH]1` [Example 31, 5-(1-ethylhydrazinyl)-1H-1,2,4-triazole hydrochloride], the half-inhibitory concentration (IC50) is above 100 µM.
The result for `CCN(N)C(=O)c1nnn[nH]1` [Example 33, N-ethyl-1H-tetrazole-5-carbohydrazide] reads above 100 µM.
As for `C1CCC(=NNc2nnn[nH]2)CC1` [Example 23], the figure is below 10 µM; as for `CC(C)=NN(C)c1nnn[nH]1` [Example 28, 5-(1-methyl-2-(propan-2-ylidene)hydrazinyl)-1H-tetrazole], below 10 µM; as for `CN(C)c1ccc(C(=O)C/C=N/Nc2nnn[nH]2)cc1` [Example 26, (E)-3-(2-(1H-tetrazol-5-yl)hydrazono)-1-(4-(dimethylamino)phenyl)propan-1-one], below 10 µM.
As for `COCCCN(N)c1nnn[nH]1` [Example 5], the figure is above 100 µM.
Regarding `O=[N+]([O-])c1ccc(/C=N/Nc2nnn[nH]2)cc1` [(E)-5-(2-(4-nitrobenzylidene)hydrazinyl)-1H-tetrazole], the IC50 is above 100 µM.
The result for `C/C(=N\Nc1nnn[nH]1)c1ccc(N(C)C)cc1` [Example 22] reads below 10 µM; that for `CC/C(C)=N/Nc1nnn[nH]1` [Example 25], below 10 µM.
Regarding `C1CCC(=NNc2nnn[nH]2)C1` [Example 24], the IC50 was below 10 µM.
As for `CNCCCN(N)c1nnn[nH]1` [Example 15], the figure is below 10 µM.
